# According to publication PMC7819943, “Rice protein-binding microarrays: a tool to detect cis-acting elements near promoter regions in rice”:
# The list shows a part of the results.
# Molecular target: T1, OsWOX13 (Oryza sativa, UniProt Q5QMM3 1-267)
# T1 sequence: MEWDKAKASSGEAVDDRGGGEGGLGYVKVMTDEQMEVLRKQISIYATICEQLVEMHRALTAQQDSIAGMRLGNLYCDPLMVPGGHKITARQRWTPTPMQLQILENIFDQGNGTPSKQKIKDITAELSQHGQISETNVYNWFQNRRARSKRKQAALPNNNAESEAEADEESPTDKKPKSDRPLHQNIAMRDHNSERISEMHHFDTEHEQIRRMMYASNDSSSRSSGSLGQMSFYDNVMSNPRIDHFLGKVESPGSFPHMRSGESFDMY
# Assay: protein-binding microarray (RPBM); PBS, 2% BSA, 51.3 ng/ul salmon testes DNA, 50 uM zinc acetate, 200 nM TF, 25 C, 1 h; high values mean tight binding
# Details: protein: recombinant; tags: N-terminal polyhistidine and DsRed monomer fusion (pET32a); label: CyDye5-dUTP incorporated in the synthesized complementary strand; 3' TTTTT single-stranded linker to array surface; dsDNA, one strand shown
# How it was run: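 Binding signal is reported as fluorescence intensity per feature (arbitrary units) from an Axon 4000B scanner. Incubation used 200 nM of each Ni–NTA-purified, N-terminally polyhistidine- and DsRed-fused transcription factor from E. coli BL21-CodonPlus on a double-stranded custom Agilent array for 1 h at 25 °C, with 50 µM zinc acetate in the buffer, followed by washing.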
row,Sequence,binding signal
1,ATTAAGCACTACGTCAGATATGATTGGCCATCATTGCATTCGGAGTCACCTAGTGCAG,7320 fluorescence intensity (a.u.)
2,AATAAATAGACGACTATCCCCATTTTCTTACAAGTTACAACGGAGTCACCTAGTGCAG,9460 fluorescence intensity (a.u.)
3,TCACAATTGAATGCTTTGGAATATTGGCATTTTGTGATTGCGGAGTCACCTAGTGCAG,8490 fluorescence intensity (a.u.)
4,TTTGACCGTATCAAATTTTGATAAGACAATAAACTAAACGCGGAGTCACCTAGTGCAG,3560 fluorescence intensity (a.u.)
5,AAGATTGAAATAATCTGACATATAGGTCCCACGCTATCTCCGGAGTCACCTAGTGCAG,28900 fluorescence intensity (a.u.)
6,TCACCATCAATTACCTCGTGTAAACTTCCAATCCCCTTCCCGGAGTCACCTAGTGCAG,14800 fluorescence intensity (a.u.)
7,GTTCAATTGAATGAGTAAAGTTAATGGATACCAATCTGCTCGGAGTCACCTAGTGCAG,14700 fluorescence intensity (a.u.)
8,GCACTGTCAATTGCACAAAATTAAAGCAAGCATGTAGGTACGGAGTCACCTAGTGCAG,4720 fluorescence intensity (a.u.)
9,CTTGTACTAATTTACGCTCATCTGTCAAAGTTGTTTCACCCGGAGTCACCTAGTGCAG,11100 fluorescence intensity (a.u.)
10,CTATGATTTATTAATTTTGGCGTAGTAGTGGATGGTAACACGGAGTCACCTAGTGCAG,16200 fluorescence intensity (a.u.)
11,CTTCATGCTGTCCCGTAATTACCAGATAATGAAAGTTGTACGGAGTCACCTAGTGCAG,6790 fluorescence intensity (a.u.)
12,GCAAATGAAAATAATTTGTAAAATAAAACTTTTATATATGCGGAGTCACCTAGTGCAG,6110 fluorescence intensity (a.u.)
13,GAGATTGGTGGGAATTGGACCTCTTAATTTTCCATCCCAACGGAGTCACCTAGTGCAG,26100 fluorescence intensity (a.u.)
14,CAATAATCAATATCCCACTTTAATTAGTAGGAAACACGAACGGAGTCACCTAGTGCAG,8110 fluorescence intensity (a.u.)
15,TATATACTAATTAGCTACATCGATCACTAGCTATAGCTAGCGGAGTCACCTAGTGCAG,16500 fluorescence intensity (a.u.)
16,ATGCTTATGAACTCCGTGATTGATTGGTTCAGCGCAGTTGCGGAGTCACCTAGTGCAG,38400 fluorescence intensity (a.u.)
17,TACCAATTTAAATGTTTTATTGCTGTTTGGTTGCTATGCACGGAGTCACCTAGTGCAG,7560 fluorescence intensity (a.u.)
18,ATTTGACGACCACCGTTATTTATGTCACCGGATTTGGCCACGGAGTCACCTAGTGCAG,6520 fluorescence intensity (a.u.)
19,CCTGTAACTGAGAAATTAAAGTCTTTACTTATTTCTATTCCGGAGTCACCTAGTGCAG,18900 fluorescence intensity (a.u.)
20,ATGATTTGCATGATTGCTTGCTTGCTTGCTGCTATGGCCACGGAGTCACCTAGTGCAG,62700 fluorescence intensity (a.u.)
21,TAATTCTAATTTACAGCAGCGTTGTATTTAGTCATGTCCTCGGAGTCACCTAGTGCAG,5060 fluorescence intensity (a.u.)

row,Sequence,binding signal
1,ATAACACGTGTTTAATTGATGTTACTATATATCATGCTGACGGAGTCACCTAGTGCAG,35000 fluorescence intensity (a.u.)
2,ATATGACATAATTAGCCAACTAATCACAAGGCAGTCCAGTCGGAGTCACCTAGTGCAG,42100 fluorescence intensity (a.u.)
3,AAAAGCAAATTTAGTTTGATGGGATATATTACAGTGCAACCGGAGTCACCTAGTGCAG,4520 fluorescence intensity (a.u.)
4,TTAACTATTTGTCAATCTTATAAGCGATAATTAAGGATCTCGGAGTCACCTAGTGCAG,12200 fluorescence intensity (a.u.)
5,TACGTTCTCTAATTAATTTGCCAGACAAAACAAAACATTACGGAGTCACCTAGTGCAG,14800 fluorescence intensity (a.u.)
6,ACTAATTACACAGAATGCATGTAAATTACGAGACGAATCTCGGAGTCACCTAGTGCAG,31200 fluorescence intensity (a.u.)
7,AATGTTCAATTCAGTGACAGATTGCAGGTTTGCATATATGCGGAGTCACCTAGTGCAG,4300 fluorescence intensity (a.u.)
8,GTAAGAGGGATATTTGGATAATTGGCAAACCTAACAGTGACGGAGTCACCTAGTGCAG,4000 fluorescence intensity (a.u.)
9,CTAAATTCATTAACATTTATATGAATGTGGGCAATGCTAGCGGAGTCACCTAGTGCAG,8430 fluorescence intensity (a.u.)
10,CAATTCTTGATTTGCCGTCCATTCCATCTAGCACCTAGCTCGGAGTCACCTAGTGCAG,13200 fluorescence intensity (a.u.)
11,TTTAGCATTGTTAAAACCTGTAGTTTTGTGCTAATGGATACGGAGTCACCTAGTGCAG,5650 fluorescence intensity (a.u.)
12,CTTATATTTGCAAATATTGATGGTTGTTGACATATGAACTCGGAGTCACCTAGTGCAG,3210 fluorescence intensity (a.u.)
13,GCATTTCATTTGATTTAACACTTTTACCCCTTATCTCCAACGGAGTCACCTAGTGCAG,5100 fluorescence intensity (a.u.)
14,ATCATATTCAATCATCAAGACATGAACGATTTCTTTTAGTCGGAGTCACCTAGTGCAG,15400 fluorescence intensity (a.u.)
15,GAAAAGTCTGCTCTTAATTGGAAGTATGTATGAGTATCAGCGGAGTCACCTAGTGCAG,4970 fluorescence intensity (a.u.)
16,AAATTTAAATTTGAAGTTGATTTTAAGATATTTTCAACGTCGGAGTCACCTAGTGCAG,21000 fluorescence intensity (a.u.)
17,TTCAATCCTAGAACACAAGTTGATTAGTTGAACAGGCAGCCGGAGTCACCTAGTGCAG,3460 fluorescence intensity (a.u.)
18,AAATGTAATTTTAAAATTAAAATTTCAAAATCTATAAACACGGAGTCACCTAGTGCAG,11300 fluorescence intensity (a.u.)
19,CACATTGATGTGCAATCTGCAAATCCGGCGCCAAATTTACCGGAGTCACCTAGTGCAG,5260 fluorescence intensity (a.u.)
20,TGATTGATCATTGTACATCTATTAGTCCTGTTGTTCCATCCGGAGTCACCTAGTGCAG,9270 fluorescence intensity (a.u.)
21,TTTTGTTTATTACGTGCATAATAGGCTAATTATGCAAGAACGGAGTCACCTAGTGCAG,5150 fluorescence intensity (a.u.)

row,Sequence,binding signal
1,CGCTCGCGACAATTAATGTATAATACGTAATTACGTATACCGGAGTCACCTAGTGCAG,5400 fluorescence intensity (a.u.)
2,ATGGGCCCCGCTACATTGATTGGGCCACGTTGGGTCTTGGCGGAGTCACCTAGTGCAG,4520 fluorescence intensity (a.u.)
3,TCACTTATCACTAAAAGAATAATTAGTTGTAAATGTGAGCCGGAGTCACCTAGTGCAG,3200 fluorescence intensity (a.u.)
4,CGCGCCAATCATCTCCCGCTCCCTCTTATCCTCCCCTCTCCGGAGTCACCTAGTGCAG,14100 fluorescence intensity (a.u.)
5,CTTGATTAATCCGTACGTCTATCAACTCAGCCCGAAACGCCGGAGTCACCTAGTGCAG,46200 fluorescence intensity (a.u.)
6,TTTGTGCTAATTACCTATTTGCAATATTTAGATTGCATCTCGGAGTCACCTAGTGCAG,15300 fluorescence intensity (a.u.)
7,TGAGATAATAGACGCGTGCTTTGCAGAGTGATCCAAAGCTCGGAGTCACCTAGTGCAG,3350 fluorescence intensity (a.u.)
8,AGATAAAATGAGTAATCATCTGTCTAACATGTCACACCAGCGGAGTCACCTAGTGCAG,11800 fluorescence intensity (a.u.)
9,CGTGCAATTTATCGTTGATCGATCGAATCGTGGTGAAGAACGGAGTCACCTAGTGCAG,4200 fluorescence intensity (a.u.)
10,TATGACAGGTTGATGTGATGGAAAAGAACTGAAGTTTGGACGGAGTCACCTAGTGCAG,20900 fluorescence intensity (a.u.)
11,CTTGGATTTAATTGCTCGTGCATATGTTTTCAGATGTCAGCGGAGTCACCTAGTGCAG,21700 fluorescence intensity (a.u.)
12,AAATTTGACAGATGTAATTACAGTACATCAATTGAAGTGTCGGAGTCACCTAGTGCAG,43500 fluorescence intensity (a.u.)
13,TCCCTTATTTTCTTGCGCAATCATTACCCACAACCTCAAACGGAGTCACCTAGTGCAG,3290 fluorescence intensity (a.u.)
14,TAGTAATTGTTATATACAGATCATATTCGTAGTACTACTTCGGAGTCACCTAGTGCAG,12400 fluorescence intensity (a.u.)
15,GAAATGATGGCTTTCTTTGATTTCCTTTGCTAGCTTACTTCGGAGTCACCTAGTGCAG,3730 fluorescence intensity (a.u.)
16,CATGACTTGGATAAATTAGCGTCATCTTTGTCCCCAATGCCGGAGTCACCTAGTGCAG,16300 fluorescence intensity (a.u.)
17,TAACTGATTACTCATTCGTTCTTAAAATATATAGCAATCTCGGAGTCACCTAGTGCAG,12100 fluorescence intensity (a.u.)
18,CCGTCACATTGTTTCAATTTCAATCAAACTTTTAATTTTACGGAGTCACCTAGTGCAG,6870 fluorescence intensity (a.u.)
19,AGCGTATTCACATATTTAATTAATATTTATAGATATCACGCGGAGTCACCTAGTGCAG,5290 fluorescence intensity (a.u.)
20,TTTCAATTATATACGTAGAAGTATTATGGACCAGACCTCCCGGAGTCACCTAGTGCAG,3320 fluorescence intensity (a.u.)
21,CATAATATTATAAATTTAGACAGGGAGCATGTATAGATTCCGGAGTCACCTAGTGCAG,14200 fluorescence intensity (a.u.)

row,Sequence,binding signal
1,TAAATTAATCATGCATGCATGGCCATTTTAGTCCGTACATCGGAGTCACCTAGTGCAG,4900 fluorescence intensity (a.u.)
2,CCACTAATCATACTTATCAGCCGCTCAATCAGAGTGACAACGGAGTCACCTAGTGCAG,15000 fluorescence intensity (a.u.)
3,TCATGTAATTGTTGATAAGAGTGTCAGAATTCAGATAGTGCGGAGTCACCTAGTGCAG,13500 fluorescence intensity (a.u.)
4,GAGTGACAGAGACATAGCAACTAACAGTCACAGGCAGGCACGGAGTCACCTAGTGCAG,5390 fluorescence intensity (a.u.)
5,CTCTGTCCATCACCACTTGATTAGGAGGGATCTAAATGGTCGGAGTCACCTAGTGCAG,15100 fluorescence intensity (a.u.)
6,CGATGACAGGATGAGTGACCTCAAGTGAACCTTTTCCACTCGGAGTCACCTAGTGCAG,9930 fluorescence intensity (a.u.)
7,TTTATATTAGTGAGTAAATTGGTGATGAAATTTCTATAACCGGAGTCACCTAGTGCAG,16300 fluorescence intensity (a.u.)
8,CGATTGAAATTTCGATAATTTCGTCAAAGCCGATTGGTTTCGGAGTCACCTAGTGCAG,13400 fluorescence intensity (a.u.)
9,AGGTAATCAAGGTGATAATTTGAGCTACTAGACCACTACTCGGAGTCACCTAGTGCAG,24100 fluorescence intensity (a.u.)
10,GCCACTGATGGGATTTCCTTAACTACCAAGCAACAAACCGCGGAGTCACCTAGTGCAG,7830 fluorescence intensity (a.u.)
11,AGCGCCTAATTAACCCGTGAACAACGTGTCTTTTCATCGTCGGAGTCACCTAGTGCAG,7010 fluorescence intensity (a.u.)
12,GATAATGAATCATTGTTGTGTCCATGTATATTACATCATGCGGAGTCACCTAGTGCAG,3310 fluorescence intensity (a.u.)
13,CCCTAATCACCATCAATCAAGGTACGAGATAATTAAGAGACGGAGTCACCTAGTGCAG,38000 fluorescence intensity (a.u.)
14,TAGTAATTTATTCCTTATTGGTTTTCACAACTCAAATAATCGGAGTCACCTAGTGCAG,13800 fluorescence intensity (a.u.)
15,CTTGATTGGATCAGGATCATTTGGCATGGTTTACAAGGGCCGGAGTCACCTAGTGCAG,65100 fluorescence intensity (a.u.)
16,AAAGATAATTGAAAAGTAAACTTGTTGACAGACGGAATCCCGGAGTCACCTAGTGCAG,30400 fluorescence intensity (a.u.)
17,CCCCTCGCTTCCCGCCCTTCACTTCTCCCCTTCCAAGAAACGGAGTCACCTAGTGCAG,3340 fluorescence intensity (a.u.)
18,ATTAATTATATATATTATTTCCATCTGCGGGAGGAATTCGCGGAGTCACCTAGTGCAG,35800 fluorescence intensity (a.u.)
19,TGTGATTGTCTTAATCTTATTACAGAGCCCAGTCTCACGTCGGAGTCACCTAGTGCAG,49000 fluorescence intensity (a.u.)
20,CATGTTTCCTTATGTCATACCTGACAATCCTGCCAATATCCGGAGTCACCTAGTGCAG,3230 fluorescence intensity (a.u.)
21,TAAACTGATATAAGTGCCTAAATTTGGATTGAGGGTGGTGCGGAGTCACCTAGTGCAG,8300 fluorescence intensity (a.u.)
